Values marked as one replicate rest on one cluster of the flow cell; about a third of the high ones do not repeat.
System: ATP
Assay: switch fluorescence ratio, 500 uM ATP over buffer (Cy3 cluster intensity, sum of 5 cycles each) (fold (ratio)); higher = stronger signal-on switching upon ATP binding; sequences stand for … in TCGTCGGCAGCGTCAGATGTGTATAAGAGACAGTTTTTTTTTTTTTTTTTTTTTTTTT…TC
Conditions: aptamer strand: ATP DNA aptamer (quencher-CACCTGGGGGAGTATTGCGGAGGAAGG + anchor), 100 nM annealed; ATP concentration: 500 uM; one replicate
How it was run: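 Between each of five buffer/ATP cycles, the flow-cell was stripped with NaOH and re-annealed. Each cycle imaged Cy3-labelled switching-strand clusters, annealed to 100 nM quencher-labelled ATP aptamer on a modified Illumina MiSeq flow-cell, first in selection buffer and then after 15 min with 500 uM ATP at 22 °C. The fluorescence ratio is summed target-cycle over summed buffer-cycle Cy3 intensity per cluster, averaged per switch-domain sequence, with clusters outside 100-1000 RFU excluded.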
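Also: ATP exposure 15 min at 22 °C before imaging.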

Sequence	switch fluorescence ratio
ATACGTAAGC	1.25
TGCCTTCGCA	2.02
AAATCACCGA	0.994
AATATTCGGG	0.997
AGGTTTTCGA	0.951
ACAAAAAGT	0.984
GGCGGCGACG	1.06
AAAGCCTTTT	1.24
TCGGGGGCAA	1.05
AGTACCGTGC	1.05
GGATGGAAAA	0.982
ATAAGGCTGG	0.974
ACTCGCTTAG	1.28
GTCCGCTCTT	1.11
CATACCTTAA	1.08
CTTGTGAACA	0.985
AGTTACTGCC	1.05
CGTCCGGGTC	1.73
TACTTGTCA	1
TAATTTAATG	1.05
GGTGTACATG	1.01
CATTTACCG	1.05
CTTAGCGGAG	0.966

Sequence	switch fluorescence ratio
GAGTCAACAA	1.04
CCGAAACAGT	1.95
AGATAACTGT	1.06
AAGTGTAAGC	0.959
CAATGATGCG	0.964
TCACGTATTG	1.09
GGAATTACTA	0.954
CGGTCTGCGC	1.03
CCTACGTTG	2.25
TCTACCAATG	1.2
ACGCGGCCTG	1.06
TTGCTCGCTT	0.99
TATAAGTAAC	1.03
TACCGGTGGA	1.02
CCCAGGGACT	1.32
ACATCTGA	1.02
AGCTGCGCTC	0.999
TGTGAATA	0.993
TTGGGTCTA	1.01
ACATCATTAA	1.01
TCGACACCGC	1.34
ATAAGGGAAT	1.01
GAAATGCGGT	0.997

Sequence	switch fluorescence ratio
AGGGTGTAGC	1.01
AATATAAGGT	1.01
TTTTCGCGCG	0.982
TTTGACAAAA	1.04
CGGATTCGGT	1.01
AGAAAATGG	1.01
GTGTTTCGGC	0.96
CGATTTGGTA	0.992
TCTAGATTGA	1
ACTCTGTGCA	1.09
GGCCGACACA	1.09
ATTTTTATGC	0.959
GTTGTTCTTG	0.978
GTTAGATTAG	0.997
TATTCGTCGA	0.989
TACGACGACA	1.76
ATTTCGTTAT	1.06
GATGGGCGGC	1.05
CTAATATGG	0.937
GCGCCTTAAC	1.2
GGGCCATCTC	1.03
CTTCGAATGT	1.02
TGGTCAGGGC	1.03

Sequence	switch fluorescence ratio
ACCCTAGCCA	1.07
AGCGAAGTCT	1.02
TGCAGGGTGA	1.07
TAGCTCGTC	1.1
ACGTTCGGCC	1.03
AATTGAGAGA	0.968
AACAAAGGTG	1.53
ATGCTCTGCG	1
TGTCATTGCA	1.06
TAGCCTTGTG	1
GCCTTGTTAT	1
TGCGCGACGT	1.02
TGGCAACCAT	1.04
TCCTGCTTCC	1.88
ACGAGCCCCA	1.35
GAATCTGCTG	1.06
GATAAATGG	1.01
CGGGTTTGCC	0.959
TGCGGTCAGG	0.985
GGAATCTCG	0.996
TTACATTGGA	1.01
AGATCGTCTG	0.967
CCCTTAGAAG	0.961

Sequence	switch fluorescence ratio
ATCGCGGGA	0.913
TCGGGGGATC	0.989
GTGGTGGGAA	0.951
CGGCTGAGGT	0.952
GTCCCAAGGG	1.08
CGAAAGCGTG	1.01
TAAATACCGT	1.1
ACCATCGCCT	1
TGTAGGTGCT	1.07
CAACGGACAA	1.29
GATTAATTGT	0.974
ATATACGGCC	1.05
TCATCCAAAT	1.26
GTAGCGTGCT	0.994
TACGCGGCC	1.26
ACCTGAGTAT	1.03
CATCGTTACG	1.02
CCGTGCCCTC	1.22
ATTCAGTTCC	1.08
AAAGTCTGTG	1.04
GACTCGCATA	5.73
CGGGGAGTCC	1.19
ATAGTAGTTG	0.995

Sequence	switch fluorescence ratio
ATGGGTCATT	1.01
CACGTCAGGT	1.1
GTAATTTGCC	0.984
CGCTAGTTGA	1.03
TGAGCAAGGG	1.05
TTGATTAC	1.08
GATAATTCAG	1
CGGAGAAAGT	1.01
AATTTAAGCT	1.05
CAAATGTTCT	0.994
CCGGGTCCGG	0.978
TCACTTTCAA	1.05
TAGAAAGG	0.978
AGTACGTCAA	1.35
ACCTGTGTCC	1.15
CCGCTGTTAT	2.72
GCTTCGTCCC	1.48
CGTGTCGAAC	1.05
GTGTGACTAG	1.04
GGGAGAGTAT	1.01
GTCATAGTCT	1.06
TTAAAGGTCT	1.01
ACCACCGCAA	1.64

Sequence	switch fluorescence ratio
TGACCGGGAA	1.06
ACTAACTTAT	1.11
GTAGTCTATG	0.945
CGCTGGGTTA	1.01
GTAAAAGATG	1.04
AAAAGAGCTC	1.01
AAGCCAAATT	1.01
GGGTGCACTG	0.986
GGGTTCATCA	0.998
ACAGCCCAT	1.06
GCTTCTTGAG	1.09
ACACGAGGCG	1.04
CAATCAGATC	1.02
GTCATGGCTG	0.944
AATCCGGGCG	1.01
ATTGACCAGG	1.02
CGAAAAAATG	1
CGCGATAGAG	1.01
AAGGTCAGGA	1.02
